# Over roughly 33,000 sequences, “E-score (-0.5 to 0.5)” has its median near -0.041; the highest 2% begin near 0.37. This is one part of the list.
# Target: T1, Ecm22 (UniProt Q05958)
# T1 sequence: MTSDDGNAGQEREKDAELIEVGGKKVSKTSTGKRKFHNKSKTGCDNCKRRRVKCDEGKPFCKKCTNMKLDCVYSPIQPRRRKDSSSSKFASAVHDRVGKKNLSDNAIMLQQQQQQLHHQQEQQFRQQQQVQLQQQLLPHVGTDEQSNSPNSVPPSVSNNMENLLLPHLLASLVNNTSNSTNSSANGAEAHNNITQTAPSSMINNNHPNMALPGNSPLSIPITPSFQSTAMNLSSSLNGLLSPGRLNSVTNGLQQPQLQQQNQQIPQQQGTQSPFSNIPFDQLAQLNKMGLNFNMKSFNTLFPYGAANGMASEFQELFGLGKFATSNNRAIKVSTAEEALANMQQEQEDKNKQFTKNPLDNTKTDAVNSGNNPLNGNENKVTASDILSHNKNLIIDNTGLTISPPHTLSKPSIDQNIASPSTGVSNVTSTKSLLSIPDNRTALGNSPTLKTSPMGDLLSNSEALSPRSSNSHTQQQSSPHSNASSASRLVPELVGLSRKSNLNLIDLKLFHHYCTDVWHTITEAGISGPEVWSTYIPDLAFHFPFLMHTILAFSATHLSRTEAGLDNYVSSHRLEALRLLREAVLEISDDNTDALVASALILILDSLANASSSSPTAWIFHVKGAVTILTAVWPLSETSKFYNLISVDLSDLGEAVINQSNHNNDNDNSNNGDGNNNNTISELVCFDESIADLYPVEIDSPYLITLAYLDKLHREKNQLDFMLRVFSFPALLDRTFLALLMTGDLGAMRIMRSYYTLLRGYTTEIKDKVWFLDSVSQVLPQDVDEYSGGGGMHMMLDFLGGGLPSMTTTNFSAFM
# Assay: PBM E-score (8-mer binding enrichment) (E-score (-0.5 to 0.5)); higher = stronger / more preferred TF binding; most listed sequences are background and not binding sites
# Conditions: protein concentration: 200 nM; construct: GST-full length
# Experimental: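 Universal 'all 10-mer' protein binding microarrays (Agilent AMADID 015681) probed with GST-tagged S. cerevisiae TFs (full-length or DBD) made by in vitro transcription/translation (PURExpress), about 100-200 nM. Bound TF was detected with fluorescent anti-GST. Each ungapped 8-mer (which stands for itself and its reverse complement) is scored by the PBM enrichment score (E-score), a modified Wilcoxon-Mann-Whitney statistic from -0.5 to +0.5, computed with the Universal PBM Analysis Suite. Scale: above 0.35 generally sequence-specific binding.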
row,Sequence,PBM E-score
1,CCCGGGGA,-0.286
2,ATAAAAAT,-0.168
3,CTGTAATA,0.139
4,ATTGGTTG,-0.164
5,AAGAACGC,0.118
6,CTCGAGCC,-0.0532
7,GAATGTAC,0.133
8,ATTTACAC,-0.162
9,CCCCATTA,-0.249
10,CCGGCCAG,-0.176
11,AACGTCCT,0.0799
12,AATTGCGA,0.134
13,CGGTAGAC,0.0507
14,TAACACAA,0.0687
15,AGACAAGA,-0.0237
16,ACAGGTCC,-0.142
17,AGCTTGGA,-0.13
18,AATATCAA,-0.0357
19,GAAGATTC,-0.00872
20,AAGAGTTC,0.00406
21,GATCGAAA,0.182
22,GAAAGTTC,-0.187

row,Sequence,PBM E-score
1,ATAAGGTA,-0.0216
2,TCCTTCGA,-0.104
3,GTACTCTA,-0.0371
4,GCTGCCGA,-0.0547
5,CCGCCTAA,-0.0442
6,AGTAGGTA,-0.00972
7,ACAACGCT,-0.067
8,GAACACTC,0.185
9,CTTTCGCC,-0.0432
10,CTCCGCTA,-0.123
11,AAGTCCGC,-0.026
12,GCTACCGA,0.0522
13,CGCCTGCC,-0.188
14,AGGTCCGG,0.0409
15,ACAGAACG,0.239
16,ACGCTGCA,-0.0508
17,CCGAGAAC,0.204
18,AGGATCCA,-0.149
19,GCTCTCAC,-0.367
20,CCTCACCC,-0.0442
21,AAGCTCAT,-0.0639
22,ATATCGTC,0.0456

row,Sequence,PBM E-score
1,GCAAATCA,0.0219
2,AACGCTAC,0.0319
3,AACCTCTT,-0.0421
4,CAAAACTA,-0.114
5,AATCCTCA,-0.147
6,AAGCTGCC,-0.241
7,CGCTATCA,-0.00413
8,CAACCGTA,0.271
9,AAATAGCG,-0.0547
10,GGATCGAA,0.251
11,GACGCACC,-0.0514
12,AGGCCTAA,-0.124
13,ACACCTTG,-0.0867
14,AACTCCCA,-0.108
15,CCGTTTTC,0.102
16,CCCCTGTC,-0.162
17,ATAATATG,0.187
18,ACCTTGTA,-0.0248
19,CACGAAAA,0.153
20,GTCGGTGA,0.0362
21,GATCCCTA,-0.0622
22,CTGCGCCC,-0.369

row,Sequence,PBM E-score
1,ACTTGATA,-0.0792
2,CGATTGCG,0.026
3,CCTTTACC,-0.14
4,AGTGGTGA,-0.115
5,AGCCATAG,-0.207
6,ACAAAACA,-0.00876
7,CCGGACGC,0.0555
8,GTTATAAA,-0.0292
9,CTCACAGA,-0.151
10,ATGTAGTG,-0.21
11,AGTTGCAG,-0.189
12,AAGACTTG,-0.0262
13,GTTAGTAA,0.0296
14,ATGAAAGA,0.0262
15,CATGCCAA,-0.0285
16,TTACTCAA,-0.0047
17,AACTCCCG,0.237
18,ACTCGGCC,-0.0187
19,CTTCCCCC,-0.308
20,ATGCATAC,0.154
21,CGACTCCG,0.103
22,TGGGCAAA,-0.166

row,Sequence,PBM E-score
1,ACGCGTTC,0.18
2,AAATAATC,-0.0438
3,CTAAAATA,-0.0259
4,AAAGCGCA,-0.0875
5,GAGCCATC,-0.0807
6,CCCTCCCG,-0.137
7,CCACGAAA,-0.0672
8,CCGGGCCA,-0.282
9,GTAAAGCA,0.0968
10,ATAAATAC,0.206
11,GCGGGCGA,-0.0412
12,CGAAACGA,0.424
13,AAGTTTTG,-0.00804
14,CAGTCGGA,-0.067
15,ATAGATGC,0.0571
16,AGATCTAC,0.113
17,GACCCGTA,0.24
18,CTACTAAA,-0.0909
19,CTTGGTTA,-0.106
20,CTGAGTGC,-0.0819
21,CGGAGATC,0.088

# — the supplement of paper PMC3334620
